Test results taken from PubChem BioAssay AID1508623 (National Center for Advancing Translational Sciences (NCATS), 2021).
Among all 48,000 compounds or so, about 450 (0.94%) were called active. Roughly 19% stayed inconclusive and do not appear here. Calls come from the whole dose curve; as a rule, active = well fitted inhibition curve with a large enough effect; inconclusive = small, poorly fitted or top-dose-only effect; inactive = no such curve, though single readings can be large or run the other way. This is one part of the list.

Experiment: Primary qHTS for Identification of Small Molecule Inhibitors of Huntingtin Promoter Activity; note: nearly all actives have a fitted effect of over 50% in size
Settings: HEK293 HTT promoter firefly luciferase reporter (activity 0% = vehicle and -100% = no light), 24 h; series mostly up to 57.5 µM; activity change, negative = inhibition: at the top concentration
In short: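 HEK293 luciferase promoter-reporter cells (2,500/well) plated 24 h, then compounds added at up to 57.5 uM final for 24 h at 37 °C. Firefly luminescence by Dual-Glo, normalized to vehicle (0%) and zero RLU (-100%).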

Activity change, negative = inhibition, inactive:
CCOc1ccc(NC(=O)Cn2cc(C(=O)C3CC3)c3ccccc32)cc1 -6.97%
COc1ccc(C(=O)Nc2ccc(-c3nc4cc(C)ccc4o3)c(O)c2)cc1 1.21%
COc1cc(Cl)c(NC(=O)CN2C(=O)c3cccnc3Sc3ccccc32)c(OC)c1 -23.7%
CC(C)c1ccc(NC(=O)Cn2nnc(C(=O)NCCc3ccccc3)c2N)cc1 -13.9%
Cc1nc(N2CCOCC2)c2c(C(=O)N3CCN(c4cccc(C(F)(F)F)c4)CC3)c(C)oc2n1 -12.5%
Cc1cccc2nc(-c3ccc(Cl)s3)c(Nc3ccc4c(c3)OCCO4)n12 4.58%
COc1ccc(NC(=O)C(Cc2ccccc2)NS(=O)(=O)c2ccc3c(c2)oc(=O)n3C)c(OC)c1 (stereo unspecified) -24%
Cc1ccc(OCC(=O)OCc2cc(=O)n3ccsc3n2)cc1C 2.61%
COc1ccccc1N1CCN(c2ncc3c(n2)CCN(Cc2ccccc2C)C3)CC1 -6.93%
Cc1nc2ccc(S(=O)(=O)NCC(=O)NCc3ccc(Cl)cc3)cc2s1 -19.6%
COc1ccc(OC(=O)c2cc(-c3ccc4c(c3)OCCO4)on2)cc1 -3.16%
Cc1ccc(C)c(NC(=O)CSc2cn(CC(=O)N3CCCCC3)c3ccccc23)c1 -8.34%
CCOc1ccc(NC(=O)Cn2c(=O)nc(-c3ccccc3)c3ccccc32)cc1 -7.74%
Brc1ccc(-c2cn3cc(Cc4ccccc4)sc3n2)cc1 34.9%
CC1CCN(S(=O)(=O)c2ccc3[nH]ccc3c2)CC1 -32.2%
CCOC(=O)c1ccc(NC(=O)c2noc3c2CCCC3)cc1 -20.1%
O=C1NC(NS(=O)(=O)c2ccccc2)(C(F)(F)F)C(=O)N1CCc1ccccc1 (stereo unspecified) -18.3%
CCOc1ccc(-c2cc3nc(C4CCN(C(=O)OC(C)(C)C)CC4)c(C(=O)Nc4cccc(Cl)c4C)cn3n2)cc1 -20.1%
Cn1cc(CCCC(=O)NCc2ccc(F)cc2)c2ccccc21 -13.8%
CC(NCCC(c1ccccc1)c1ccccc1)c1ccccc1 (stereo unspecified) -22%
O=C(CCC(=O)N1CCOc2ccccc21)NCc1cccs1 -3.09%
Cc1ccc2[nH]c3c(=O)n(CC(=O)N4CCN(c5ccccc5F)CC4)ncc3c2c1 3.77%
Cc1cc(N2CCN(C)CC2)nc2ccc(NC(=O)Nc3ccc(F)cc3)cc12 24.8%
O=S(=O)(NCCc1nnc2ccc(SCc3cccc(Cl)c3)nn12)c1ccccc1 -20.6%
COc1ccc(Cn2c(CNC(=O)Cc3ccc(OC)c(OC)c3)nc3cccnc32)cc1 -3.61%
O=C(Cn1c(=O)n(Cc2ccco2)c(=O)c2sc3ccccc3c21)Nc1ccc(F)cc1F -13.6%
COc1ccc(-c2cc(C(F)(F)F)c(C#N)c(SCC(=O)Nc3cccc(C)c3)n2)cc1 -11.9%
Cc1ccc(Cn2c(SCc3ccc(C(=O)O)cc3)nc3cccnc32)cc1 -7.09%
O=c1[nH]c(=O)n(C2CCCO2)cc1F (stereo unspecified) -10.2% [at 116 µM]
CSc1ncc(Cl)c(C(=O)Nc2c(C(=O)c3ccc(C)cc3)oc3ccccc23)n1 -10.5%
CCC(C)n1c(=O)c2sccc2n2c(CCCC(=O)Nc3ccc(F)cc3)nnc12 (stereo unspecified) -20.6%
Cc1ccccc1-n1c(SCC(=O)c2ccccc2)nnc1-c1ccc(F)cc1 -36.1%
Cc1ccc(SCC(=O)Nc2ccc(O)c(-c3nc4cc(C)ccc4o3)c2)cc1 72.4%
COc1ccc(NC(=O)c2ccco2)cc1NC(=O)c1cccc(C)c1OC -29.2%
Cc1ccc2c(CN3CCN(c4ccc(Cl)cc4)CC3)cc(=O)oc2c1 3.55%
Cc1ccc(CNC(=O)CCCCCn2c(=O)c3sccc3n(CC(=O)C(C)(C)C)c2=O)cc1 -21.4%
Cc1ccc(NC(=O)CSc2nc(=O)n(Cc3ccncc3)c3c2CCC3)cc1Cl -12.8%
COc1ccc(Nc2ncc(C(=O)Nc3cccc(OC)c3)c3ccccc23)cc1 15.3%
Cc1ccc(Cl)cc1N(C)C(=O)c1sc2nc3n(c(=O)c2c1C)CCCC3 -29.5%
COC(=O)c1cc(NC2(c3ccccc3)C(=O)c3ccccc3C2=O)cc(C(=O)OC)c1 -10.2%
CC(C)(C)c1ccccc1NC(=O)c1cnn2c(C(F)F)cc(-c3ccccc3)nc12 -6.48%
COc1ccccc1NC(=O)CSc1oc(-c2ccc(F)cc2)nc1S(=O)(=O)c1ccc(Br)cc1 -10.9%
Cn1c(=O)c2c(SCC(=O)Nc3ccc(F)cc3F)nc(C3CCCC3)nc2n(C)c1=O -1.05%
CCOC(=O)c1cnc(N2CCN(c3ccc(C)cc3C)CC2)c2ccccc12 -16%
CSc1cccc(NC(=O)CN2C(=O)COc3ccc(S(=O)(=O)N4CCC(C)CC4)cc32)c1 -14.2%
Cc1ccc(C)c(NC(=O)Cn2ccn(-c3ccc(F)cc3)c(=O)c2=O)c1 -15.2%
C[C@]12CC[C@@H]3c4ccc(O)cc4C[C@@H](CCCCCCCCCS(=O)CCCC(F)(F)C(F)(F)F)[C@H]3[C@H]1CC[C@H]2O (stereo partly specified) -21.1%
OC1C(O)C(O)C(O)C(O)C1O (stereo unspecified) -1.18%
Cc1ccc(-c2nc3c4ccccc4n(CC(=O)N4CCN(c5ccc(F)cc5)CC4)c(=O)n3n2)cc1 11.5%
CCC(C)NC(=O)Cn1c(-c2cccs2)cc2cc(Cl)ccc21 (stereo unspecified) -13%
CCOC(=O)c1c(NC(=O)c2cc(-c3ccc(Cl)cc3)on2)sc(C)c1C -4.09%
Cc1cc(N2CCC(C(=O)NCCC(C)C)CC2)n2nc(C)c(-c3ccc(Cl)cc3)c2n1 -11.3%
Cc1ccc(CN(C(=O)c2ccccc2[N+](=O)[O-])c2ccccn2)cc1 -24.3%
CC1CN(C(=O)CCC(=O)NCc2ccccc2)c2cc(Cl)ccc2O1 (stereo unspecified) -19.2%
CC(C)(C)NC(=O)c1ccc2nc(CCc3ccccc3)oc2c1 20.4%
Cc1cc(C)cc(N2C(=O)CCSC23C(=O)N(Cc2ccccc2)c2ccccc23)c1 (stereo unspecified) -6.79%
CCOc1ccc(CCNC(=O)c2ccc3c(c2)sc2nc(-c4ccc(F)cc4)cn23)cc1OCC -22.5%
Cc1ccc(C(CC(=O)Nc2ccc(F)c(Cl)c2)N2Cc3ccccc3C2=O)cc1 (stereo unspecified) -7.01%
COc1cccc(NC(=O)N(Cc2c[nH]c3ccccc23)C2CCCCC2)c1 20.8%
CC(C)c1ccc(NC(=O)CCn2c(=O)c3cccn3c3ccccc32)cc1 -2.72%
Cc1ccc(N2CC(NC(=O)C3CC3)CC2=O)cc1C (stereo unspecified) -20.1%
CCOC(=O)c1ccn(-c2nc(-c3cccc(OC)c3)cc(C(F)(F)F)n2)n1 -20.8%
Cc1nc2sccn2c(=O)c1S(=O)(=O)Nc1ccc(N2CCN(C(=O)C(C)C)CC2)cc1 -31%
COc1cc(C(=O)Nc2nonc2-c2ccc(Cl)cc2)cc(OC)c1OC -25.2%
Cc1cccc(N2CCN(S(=O)(=O)c3c(C(=O)N4CCC(C)CC4)c(C)n(C)c3C)CC2)c1C -38.2%
Cc1ccc(NC(=O)Cn2cnc3sc(C)c(S(=O)(=O)N4CCN(c5ncccn5)CC4)c3c2=O)cc1F -10.4%
COC(=O)c1ccc(NC(=O)CC2C(=O)N(c3ccccc3)C(=O)N2Cc2ccco2)cc1 (stereo unspecified) -18.7%
COc1ccc(NC(=O)CSC2=Nc3ccccc3C3=NC(CC(=O)NCc4ccc5c(c4)OCO5)C(=O)N23)cc1 (stereo unspecified) 0%
CCOc1ccc(C(c2c(O)cc(C)n(Cc3ccco3)c2=O)N2CCN(c3ccccc3)CC2)cc1 (stereo unspecified) -7.46%
CCCc1cnc2c(c1SCC(=O)Nc1ccccc1F)c(=O)n(C)c(=O)n2C -33.8%
CCc1nn(Cc2c(C)cc(C)cc2C)c(=O)c2cc3cc(C)ccc3n12 -8.77%
CCCC12CN3CC(CCC)(CN(C1)C3c1c(C)[nH]c(=O)[nH]c1=O)C2=O (stereo unspecified) -7.85%
COc1ccc(C)cc1NC(=O)CN1C(=O)COc2ccc(S(=O)(=O)NC3CCCC3)cc21 -7.68%
CCOc1ccccc1NC(=O)c1nn(C)c2c1CSc1ccccc1-2 -8.88%
CCOc1ccc(-c2csc(-c3c(N)c(C(=O)c4ccc5c(c4)OCO5)n4ccccc34)n2)cc1 -0.164%
CCOC(=O)c1cc(S(=O)(=O)Nc2ccccc2OCC)[nH]n1 -4.98%
Cc1ccccc1CSc1nc2c([nH]c3ccccc32)c(=O)n1C -1.08%
CCCc1cc(=O)[nH]c(SCc2nc(-c3ccccc3F)no2)n1 8.55%
COc1ccc(-n2c(=O)c3c4c(sc3n3c(SC(C)C)nnc23)COC(C(C)C)C4)cc1 (stereo unspecified) 1.08%
CCCn1c(=NC(=O)c2c(-c3c(F)cccc3Cl)noc2C)c(C(=O)OCC)cc2c(=O)n3ccccc3nc21 -11.5%
CC(=O)c1cccc(Nc2ccc3cc(S(=O)(=O)N4CCCC4)ccc3n2)c1 -19.8%
Cc1ccc(-n2ncc(C(=O)NCCN3CCc4ccccc4C3)c2C2CCNCC2)cc1C -5.04%
COc1ccc(NC(=O)c2cc(=O)c3ccc(C)c(C)c3o2)cc1Cl -9.06%
CC1CCN(S(=O)(=O)c2ccc3c(c2)N(CC(=O)NCCCN2CCCC(C)C2)C(=O)CS3)CC1 (stereo unspecified) -8.88%
CCN(CC)CCN 12.1%
CCOc1ccc(NC(=O)C(C)Sc2nc3ncccc3o2)cc1 (stereo unspecified) 50.6%
COc1ccc(-n2nc(C(=O)Nc3cccc(C)n3)c3c4ccccc4n(C)c3c2=O)cc1 -26.5%
CC(=O)c1ccc(N2CCN(c3ncnc4c3cnn4C)CC2)cc1 -20%
Cc1ccc2c(c1)-c1ncc(C(=O)c3cc(Br)ccc3O)cc1CO2 -8.48%
Cc1cc(C)cc(NC(=O)Cn2c(=O)n(Cc3ccc4c(c3)OCO4)c(=O)c3oc4ccccc4c32)c1 0.303%
Cc1cccc(CNC(=O)Cn2ccc3cc(S(=O)(=O)N4CCC(C)CC4)ccc32)c1 -14.8%
COc1ccccc1-c1cc(C(F)(F)F)nc(S(=O)(=O)CCCC(=O)Nc2ccc(F)cc2F)n1 21.1%
COc1ccc(-c2ccc(CCC(=O)O)n2-c2cc(Cl)ccc2O)cc1 8.64%
COc1cccc(C2CC(=O)Nc3c2c(=O)n(C)c2nc4ccccc4n32)c1 (stereo unspecified) -12.5%
CCOC(=O)C1CCN(C(=O)Cn2ncc3c([nH]c4ccccc43)c2=O)CC1 10.3%
CCC(C)N(C)C(=O)c1cc2ccccc2c(-c2ccccc2Cl)n1 (stereo unspecified) -20.8%
